{"source": "the supplement of paper PMC12230231", "note": "± gives the standard deviation of the averaged measurements. Restriction of a single-cycle SIVsab GFP reporter by TRIM5α v1-loop variants in CRFK cells. Human variants: read share among cells still uninfected after two challenges over input, higher = gained restriction. Rhesus variants: share among infected cells over input, higher = lost restriction. Reporter dose not given per row. No active / inactive call per row; the paper calls a change when both replicates lie above its controls (mean + 2 SD of stop or wild-type variants, or the top frameshift score). Residues outside the varied loop are taken from Swiss-Prot. The paper reads the human single-substitution scores as noise; they and the rhesus combinations repeat poorly (rank correlation 0.3 to 0.4), indel scores repeat only for the top variants, rhesus substitutions well (0.9)."}
{"system": "SIVsab (simian immunodeficiency virus of sabaeus monkeys), single-cycle GFP reporter, in CRFK cells", "test": "enrichment among uninfected cells over input (fold); higher = stronger restriction", "details": "library: human / rhesus combinations", "method": "(§1)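 Pools of CRFK cells expressing variants of the TRIM5α v1 loop were challenged with the single-cycle reporter, sorted by GFP and sequenced; mean of two replicates.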"}
{"sequence": "MASGILVNVKEEVTCPICLELLTQPLSLDCGHSFCQACLTANHKKSMLDKGESSCPVCRISYQPENIRPNRHVANIVEKLREVKLSPEGQKVDHCARHGEKLLLFCQEDGKVICWLCERSQEHRGHHTFLTEEVAREYQVKLQAALEMLRQKQQEAEELEADIREEKASWKTQIQYDKTNVLADFEQLRDILDWEESNELQNLEKEEEDILKSLTNSETEMVQQTQSLRELISDLEHRLQGSVMELLQGVDGVIKRTENVTLKKPETFPKNQRRVFRAPDLKGMLEVFRELTDVRRYWVDVTVAPNNISCAVISEDKRQVSSPKPQIIYQARGTRFTFPSLVNFNYCTGILGSQSITSGKHYWEVDVSKKTAWILGVCAGFQPDAMCNIEKNENYQPKYGYWVIGLEEGVKCSAFQDSSFHTPSVPFIVPLSVIICPDRVGVFLDYEACTVSFFNITNHGFLIYKFSHCSFSQPVFPYLNPRKCGVPMTLCSPSS [human TRIM5α, 330-340 = QARGTRFTFPSLV]", "enrichment": "0.295 ± 0.08"}
{"sequence": "MASGILVNVKEEVTCPICLELLTQPLSLDCGHSFCQACLTANHKKSMLDKGESSCPVCRISYQPENIRPNRHVANIVEKLREVKLSPEGQKVDHCARHGEKLLLFCQEDGKVICWLCERSQEHRGHHTFLTEEVAREYQVKLQAALEMLRQKQQEAEELEADIREEKASWKTQIQYDKTNVLADFEQLRDILDWEESNELQNLEKEEEDILKSLTNSETEMVQQTQSLRELISDLEHRLQGSVMELLQGVDGVIKRTENVTLKKPETFPKNQRRVFRAPDLKGMLEVFRELTDVRRYWVDVTVAPNNISCAVISEDKRQVSSPKPQIIYGAPGTLFTFPTLVNFNYCTGILGSQSITSGKHYWEVDVSKKTAWILGVCAGFQPDAMCNIEKNENYQPKYGYWVIGLEEGVKCSAFQDSSFHTPSVPFIVPLSVIICPDRVGVFLDYEACTVSFFNITNHGFLIYKFSHCSFSQPVFPYLNPRKCGVPMTLCSPSS [human TRIM5α, 330-340 = GAPGTLFTFPTLV]", "enrichment": "0.275 ± 0.13"}
{"sequence": "MASGILVNVKEEVTCPICLELLTQPLSLDCGHSFCQACLTANHKKSMLDKGESSCPVCRISYQPENIRPNRHVANIVEKLREVKLSPEGQKVDHCARHGEKLLLFCQEDGKVICWLCERSQEHRGHHTFLTEEVAREYQVKLQAALEMLRQKQQEAEELEADIREEKASWKTQIQYDKTNVLADFEQLRDILDWEESNELQNLEKEEEDILKSLTNSETEMVQQTQSLRELISDLEHRLQGSVMELLQGVDGVIKRTENVTLKKPETFPKNQRRVFRAPDLKGMLEVFRELTDVRRYWVDVTVAPNNISCAVISEDKRQVSSPKPQIIYGARGTRYPSFTNFNYCTGILGSQSITSGKHYWEVDVSKKTAWILGVCAGFQPDAMCNIEKNENYQPKYGYWVIGLEEGVKCSAFQDSSFHTPSVPFIVPLSVIICPDRVGVFLDYEACTVSFFNITNHGFLIYKFSHCSFSQPVFPYLNPRKCGVPMTLCSPSS [human TRIM5α, 330-340 = GARGTRYPSFT]", "enrichment": "0.368 ± 0.51"}
{"sequence": "MASGILVNVKEEVTCPICLELLTQPLSLDCGHSFCQACLTANHKKSMLDKGESSCPVCRISYQPENIRPNRHVANIVEKLREVKLSPEGQKVDHCARHGEKLLLFCQEDGKVICWLCERSQEHRGHHTFLTEEVAREYQVKLQAALEMLRQKQQEAEELEADIREEKASWKTQIQYDKTNVLADFEQLRDILDWEESNELQNLEKEEEDILKSLTNSETEMVQQTQSLRELISDLEHRLQGSVMELLQGVDGVIKRTENVTLKKPETFPKNQRRVFRAPDLKGMLEVFRELTDVRRYWVDVTVAPNNISCAVISEDKRQVSSPKPQIIYGAPGTLFTFQSLTNFNYCTGILGSQSITSGKHYWEVDVSKKTAWILGVCAGFQPDAMCNIEKNENYQPKYGYWVIGLEEGVKCSAFQDSSFHTPSVPFIVPLSVIICPDRVGVFLDYEACTVSFFNITNHGFLIYKFSHCSFSQPVFPYLNPRKCGVPMTLCSPSS [human TRIM5α, 330-340 = GAPGTLFTFQSLT]", "enrichment": "0.117 ± 0.083"}
{"sequence": "MASGILVNVKEEVTCPICLELLTQPLSLDCGHSFCQACLTANHKKSMLDKGESSCPVCRISYQPENIRPNRHVANIVEKLREVKLSPEGQKVDHCARHGEKLLLFCQEDGKVICWLCERSQEHRGHHTFLTEEVAREYQVKLQAALEMLRQKQQEAEELEADIREEKASWKTQIQYDKTNVLADFEQLRDILDWEESNELQNLEKEEEDILKSLTNSETEMVQQTQSLRELISDLEHRLQGSVMELLQGVDGVIKRTENVTLKKPETFPKNQRRVFRAPDLKGMLEVFRELTDVRRYWVDVTVAPNNISCAVISEDKRQVSSPKPQIIYGARGTRYTFQTLVNFNYCTGILGSQSITSGKHYWEVDVSKKTAWILGVCAGFQPDAMCNIEKNENYQPKYGYWVIGLEEGVKCSAFQDSSFHTPSVPFIVPLSVIICPDRVGVFLDYEACTVSFFNITNHGFLIYKFSHCSFSQPVFPYLNPRKCGVPMTLCSPSS [human TRIM5α, 330-340 = GARGTRYTFQTLV]", "enrichment": "0.129 ± 0.096"}
{"sequence": "MASGILVNVKEEVTCPICLELLTQPLSLDCGHSFCQACLTANHKKSMLDKGESSCPVCRISYQPENIRPNRHVANIVEKLREVKLSPEGQKVDHCARHGEKLLLFCQEDGKVICWLCERSQEHRGHHTFLTEEVAREYQVKLQAALEMLRQKQQEAEELEADIREEKASWKTQIQYDKTNVLADFEQLRDILDWEESNELQNLEKEEEDILKSLTNSETEMVQQTQSLRELISDLEHRLQGSVMELLQGVDGVIKRTENVTLKKPETFPKNQRRVFRAPDLKGMLEVFRELTDVRRYWVDVTVAPNNISCAVISEDKRQVSSPKPQIIYGARGTLFTFPTLTNFNYCTGILGSQSITSGKHYWEVDVSKKTAWILGVCAGFQPDAMCNIEKNENYQPKYGYWVIGLEEGVKCSAFQDSSFHTPSVPFIVPLSVIICPDRVGVFLDYEACTVSFFNITNHGFLIYKFSHCSFSQPVFPYLNPRKCGVPMTLCSPSS [human TRIM5α, 330-340 = GARGTLFTFPTLT]", "enrichment": "0.0556 ± 0.078"}
{"sequence": "MASGILVNVKEEVTCPICLELLTQPLSLDCGHSFCQACLTANHKKSMLDKGESSCPVCRISYQPENIRPNRHVANIVEKLREVKLSPEGQKVDHCARHGEKLLLFCQEDGKVICWLCERSQEHRGHHTFLTEEVAREYQVKLQAALEMLRQKQQEAEELEADIREEKASWKTQIQYDKTNVLADFEQLRDILDWEESNELQNLEKEEEDILKSLTNSETEMVQQTQSLRELISDLEHRLQGSVMELLQGVDGVIKRTENVTLKKPETFPKNQRRVFRAPDLKGMLEVFRELTDVRRYWVDVTVAPNNISCAVISEDKRQVSSPKPQIIYQARGTRYPSFVNFNYCTGILGSQSITSGKHYWEVDVSKKTAWILGVCAGFQPDAMCNIEKNENYQPKYGYWVIGLEEGVKCSAFQDSSFHTPSVPFIVPLSVIICPDRVGVFLDYEACTVSFFNITNHGFLIYKFSHCSFSQPVFPYLNPRKCGVPMTLCSPSS [human TRIM5α, 330-340 = QARGTRYPSFV]", "enrichment": "0.0601 ± 0.084"}
{"system": "SIVsab (simian immunodeficiency virus of sabaeus monkeys), single-cycle GFP reporter, in CRFK cells", "test": "enrichment among uninfected cells over input (fold); higher = stronger restriction", "details": "library: insertions and deletions", "method": "as §1"}
{"sequence": "MASGILVNVKEEVTCPICLELLTQPLSLDCGHSFCQACLTANHKKSMLDKGESSCPVCRISYQPENIRPNRHVANIVEKLREVKLSPEGQKVDHCARHGEKLLLFCQEDGKVICWLCERSQEHRGHHTFLTEEVAREYQVKLQAALEMLRQKQQEAEELEADIREEKASWKTQIQYDKTNVLADFEQLRDILDWEESNELQNLEKEEEDILKSLTNSETEMVQQTQSLRELISDLEHRLQGSVMELLQGVDGVIKRTENVTLKKPETFPKNQRRVFRAPDLKGMLEVFRELTDVRRYWVDVTVAPNNISCAVISEDKRQVSSPKPQIIYGARGTRYQTFVNFNYCTGIVNFNYCTGILGSQSITSGKHYWEVDVSKKTAWILGVCAGFQPDAMCNIEKNENYQPKYGYWVIGLEEGVKCSAFQDSSFHTPSVPFIVPLSVIICPDRVGVFLDYEACTVSFFNITNHGFLIYKFSHCSFSQPVFPYLNPRKCGVPMTLCSPSS [human TRIM5α, 9-codon duplication at 340]", "enrichment": "0.707 ± 0.3"}
{"sequence": "MASGILVNVKEEVTCPICLELLTQPLSLDCGHSFCQACLTANHKKSMLDKGESSCPVCRISYQPENIRPNRHVANIVEKLREVKLSPEGQKVDHCARHGEKLLLFCQEDGKVICWLCERSQEHRGHHTFLTEEVAREYQVKLQAALEMLRQKQQEAEELEADIREEKASWKTQIQYDKTNVLADFEQLRDILDWEESNELQNLEKEEEDILKSLTNSETEMVQQTQSLRELISDLEHRLQGSVMELLQGVDGVIKRTENVTLKKPETFPKNQRRVFRAPDLKGMLEVFRELTDVRRYWVDVTVAPNNISCAVISEDKRQVSSPKPQIIYGARGTRYQTFVNFGILGSQSITSGKHYWEVDVSKKTAWILGVCAGFQPDAMCNIEKNENYQPKYGYWVIGLEEGVKCSAFQDSSFHTPSVPFIVPLSVIICPDRVGVFLDYEACTVSFFNITNHGFLIYKFSHCSFSQPVFPYLNPRKCGVPMTLCSPSS [human TRIM5α, 4-codon deletion at 343]", "enrichment": "0.603 ± 0.48"}
{"sequence": "MASGILVNVKEEVTCPICLELLTQPLSLDCGHSFCQACLTANHKKSMLDKGESSCPVCRISYQPENIRPNRHVANIVEKLREVKLSPEGQKVDHCARHGEKLLLFCQEDGKVICWLCERSQEHRGHHTFLTEEVAREYQVKLQAALEMLRQKQQEAEELEADIREEKASWKTQIQYDKTNVLADFEQLRDILDWEESNELQNLEKEEEDILKSLTNSETEMVQQTQSLRELISDLEHRLQGSVMELLQGVDGVIKRTENVTLKKPETFPKNQRRVFRAPDLKGMLEVFRELTDVRRYWVDVTVAPNNISCAVISEDKRQVSSPKPQIITFVNFNYCTGILGSQSITSGKHYWEVDVSKKTAWILGVCAGFQPDAMCNIEKNENYQPKYGYWVIGLEEGVKCSAFQDSSFHTPSVPFIVPLSVIICPDRVGVFLDYEACTVSFFNITNHGFLIYKFSHCSFSQPVFPYLNPRKCGVPMTLCSPSS [human TRIM5α, 9-codon deletion at 329]", "enrichment": "0.905 ± 0.04"}
{"sequence": "MASGILVNVKEEVTCPICLELLTQPLSLDCGHSFCQACLTANHKKSMLDKGESSCPVCRISYQPENIRPNRHVANIVEKLREVKLSPEGQKVDHCARHGEKLLLFCQEDGKVICWLCERSQEHRGHHTFLTEEVAREYQVKLQAALEMLRQKQQEAEELEADIREEKASWKTQIQYDKTNVLADFEQLRDILDWEESNELQNLEKEEEDILKSLTNSETEMVQQTQSLRELISDLEHRLQGSVMELLQGVDGVIKRTENVTLKKPETFPKNQRRVFRAPDLKGMLEVFRELTDVRRYWVDVTVAPNNISCAVISEDKRQVSSPKPQIIYGFVNFNYCTGILGSQSITSGKHYWEVDVSKKTAWILGVCAGFQPDAMCNIEKNENYQPKYGYWVIGLEEGVKCSAFQDSSFHTPSVPFIVPLSVIICPDRVGVFLDYEACTVSFFNITNHGFLIYKFSHCSFSQPVFPYLNPRKCGVPMTLCSPSS [human TRIM5α, 8-codon deletion at 331]", "enrichment": "0.822 ± 0.79"}
{"sequence": "MASGILVNVKEEVTCPICLELLTQPLSLDCGHSFCQACLTANHKKSMLDKGESSCPVCRISYQPENIRPNRHVANIVEKLREVKLSPEGQKVDHCARHGEKLLLFCQEDGKVICWLCERSQEHRGHHTFLTEEVAREYQVKLQAALEMLRQKQQEAEELEADIREEKASWKTQIQYDKTNVLADFEQLRDILDWEESNELQNLEKEEEDILKSLTNSETEMVQQTQSLRELISDLEHRLQGSVMELLQGVDGVIKRTENVTLKKPETFPKNQRRVFRAPDLKGMLEVFRELTDVRRYWVDVTVAPNNISCAVISEDKRQVSSPKPQIIYRGTRYQTFVNFNYCTGILGSQSITSGKHYWEVDVSKKTAWILGVCAGFQPDAMCNIEKNENYQPKYGYWVIGLEEGVKCSAFQDSSFHTPSVPFIVPLSVIICPDRVGVFLDYEACTVSFFNITNHGFLIYKFSHCSFSQPVFPYLNPRKCGVPMTLCSPSS [human TRIM5α, 2-codon deletion at 330]", "enrichment": "0.469 ± 0.33"}
